# Values joined by “and” are separate entries in the source; they are usually repeats but may differ in a detail not shown here. Identical values can stand only once. The shares of active, inactive and inconclusive entries below differ from those in the screen. Where a call stands in place of a potency, no number is given. Potencies beside an inconclusive call are fits to weak or partial responses and may not hold up. Active and inactive are the calls of the source. Calls follow the shape of the dose curve; as a rule, active = well fitted curve in the direction sought with a large enough effect; inconclusive = small, poorly fitted or top-dose-only effect, or another doubt; inactive = no such curve, though single readings can be large; an effect the other way counts as inactive or inconclusive.
# Key:
# C33A = assay: Primary qHTS to identify gynecologic anti-cancer compounds using libraries of approved drugs and bioactive compounds (AID 1345084); conditions: Gynecologic cancer cell panel viability, ATPlite luminescence, 48 h; series mostly up to 57.5 µM; also: nearly all actives have a fitted effect of over 55% in size
# In short: (§1)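 ATP-based viability (ATPlite), 1,000 cells/well, 16 h pre-incubation, 48 h compound at 37 C, 5% CO2, 15 min RT before read.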
# MKL-2 = assay: qHTS assay to identify novel small-molecules to repurpose for Merkel cell carcinoma treatment (AID 1296009); conditions: MCC and control cell lines, CellTiter-Glo viability, 72 h; activity change, negative = cytotoxicity: at 46 µM (top of the series); also: nearly all actives have a fitted effect of over 60% in size
# In short: (§2)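 Cells exposed to NPC (8-point) and MIPE (11-point) compound dilutions for 72 hr at 37 degree celsius; viability read by CellTiter-Glo luminescence, normalized to no-cell and DMSO in-plate controls.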
# UISO = assay: as above; conditions: MCC and control cell lines, CellTiter-Glo viability, 72 h; series mostly up to 46 µM
# In short: as §2
# HeLa = assay: Primary qHTS to identify gynecologic anti-cancer compounds using libraries of approved drugs and bioactive compounds (AID 1345084); conditions: Gynecologic cancer cell panel viability, ATPlite luminescence, 48 h; series mostly up to 57.5 µM; also: nearly all actives have a fitted effect of over 55% in size
# In short: as §1
# WaGa = assay: qHTS assay to identify novel small-molecules to repurpose for Merkel cell carcinoma treatment (AID 1296009); conditions: MCC and control cell lines, CellTiter-Glo viability, 72 h; series mostly up to 46 µM; also: nearly all actives have a fitted effect of over 60% in size
# In short: as §2
# OV90 = assay: Primary qHTS to identify gynecologic anti-cancer compounds using libraries of approved drugs and bioactive compounds (AID 1345084); conditions: Gynecologic cancer cell panel viability, ATPlite luminescence, 48 h; series mostly up to 57.5 µM; also: nearly all actives have a fitted effect of over 55% in size
# In short: as §1
# CAOV3 = assay: as above; conditions: Gynecologic cancer cell panel viability, ATPlite luminescence, 48 h; series mostly up to 57.5 µM
# In short: as §1
# CASKI = assay: as above; conditions: Gynecologic cancer cell panel viability, ATPlite luminescence, 48 h; series mostly up to 57.5 µM
# In short: as §1
# Es-2 = assay: as above; conditions: Gynecologic cancer cell panel viability, ATPlite luminescence, 48 h; series mostly up to 57.5 µM
# In short: as §1
# Hek293T = assay: as above; conditions: Gynecologic cancer cell panel viability, ATPlite luminescence, 48 h, control line for the selectivity index; series mostly up to 57.5 µM
# In short: as §1
# JEG-3 = assay: as above; conditions: Gynecologic cancer cell panel viability, ATPlite luminescence, 48 h; series mostly up to 57.5 µM
# In short: as §1
# SKOV3 = assay: as above; conditions: Gynecologic cancer cell panel viability, ATPlite luminescence, 48 h; series mostly up to 57.5 µM
# In short: as §1
# PA-1 = assay: as above; conditions: Gynecologic cancer cell panel viability, ATPlite luminescence, 48 h; series mostly up to 57.5 µM
# In short: as §1
# Potency is read from the fitted curve at half-maximal effect; tags tell the direction and shape of the fitted curve.
structure (smiles),measurement,setting,value
C=C(c1ccc(C(=O)O)cc1)c1cc2c(cc1C)C(C)(C)CCC2(C)C,Potency,C33A,"inconclusive: 31.6 µM [rising, single point]"
Cc1c(Nc2ncccc2C(=O)O)cccc1C(F)(F)F,Potency,MKL-2,inactive
same,Potency,C33A,inactive
Cc1cc(C)c(/C=C2\C(=O)Nc3ccccc32)[nH]1,Potency,UISO,"inconclusive: 0.106 µM [inhibitor, full curve]"
same,Potency,HeLa,"inconclusive: 39.8 µM [cytotoxic, single point]"
Clc1ccc(C(Cn2ccnc2)OCc2ccc(Sc3ccccc3)cc2)c(Cl)c1 (stereo not given),Potency,UISO,"inconclusive: 29.6 µM [inhibitor, single point]"
same,Potency,WaGa,"inconclusive: 33.5 µM [inhibitor, partial curve, poor fit]"
same,Potency,OV90,inactive
O=C(Nc1ccc([N+](=O)[O-])cc1Cl)c1cc(Cl)ccc1O,Potency,UISO,active: 3.26 µM
same,Potency,CAOV3,"inconclusive: 8.91 µM [cytotoxic, partial curve, poor fit]"
same,Potency,CASKI,active: 6.31 µM
same,Potency,Es-2,active: 2.51 µM
same,Potency,Hek293T,active: 1.78 µM
same,Potency,JEG-3,active: 2.82 µM
same,Potency,SKOV3,active: 3.98 µM
CN1Cc2cc(C(=O)N3CCC(C4CCNCC4)CC3)ccc2N[C@@H](CC(=O)O)C1=O,Potency,WaGa,inactive
O=C(O)[C@H](CC(=O)N1C[C@@H]2CCCC[C@H]2C1)Cc1ccccc1,Potency,WaGa,inactive
COc1ccccc1OCC(O)CN1CCN(CC(=O)Nc2c(C)cccc2C)CC1 (stereo not given),Potency,UISO,inactive
CC(O)(P(=O)(O)O)P(=O)(O)O,Potency,MKL-2,"inconclusive: 4.73 µM [inhibitor, full curve, poor fit]"
same,Potency,Hek293T,inactive
CCCCCCCCCCCCCCCCCC(=O)O,Potency,UISO,inactive
same,Potency,WaGa,inactive
same,Potency,Hek293T,inactive
same,Potency,OV90,inactive
CN1C(=O)C(Cc2c[nH]c3ccccc23)NC1=S (stereo not given),Potency,C33A,"inconclusive: 3.98 µM [cytotoxic, single point]"
CC1(C)S[C@@H]2[C@H](NC(=O)[C@H](N)c3ccccc3)C(=O)N2[C@H]1C(=O)O,Potency,MKL-2,inactive
same,Potency,C33A,inactive
same,Potency,PA-1,inactive
same,Potency,SKOV3,inactive
C=CCCCCCCCCC(=O)O,Potency,UISO,inactive
COc1ccc(Cl)cc1C(=O)NCCc1ccc(S(=O)(=O)NC(=O)NC2CCCCC2)cc1,Potency,WaGa,inactive
same,Potency,CASKI,"inconclusive: 39.8 µM [rising, single point]"
same,Potency,Hek293T,"inconclusive: 39.8 µM [cytotoxic, partial curve, poor fit]"
same,Potency,OV90,inactive
CC1(C)S[C@@H]2[C@H](NC(=O)Cc3ccccc3)C(=O)N2[C@H]1C(=O)O (tested in a mixture with another compound),Potency,UISO,inactive
same,Potency,CAOV3,"inconclusive: 3.16 µM [cytotoxic, single point]"
O=C(OCc1ccccc1)c1ccccc1,Potency,WaGa,inactive
same,Potency,OV90,inactive
O=C(O)Cc1cccc(-c2cc(CCCCCCc3ccc(O[C@H]4O[C@H](CO)[C@@H](O)[C@H](O)[C@@H]4O)c(-c4cccc(CC(=O)O)c4)c3)ccc2O[C@H]2O[C@H](CO)[C@@H](O)[C@H](O)[C@@H]2O)c1,"activity change, negative = cytotoxicity",WaGa,inactive: 8.43% [at 0.597 µM]
same,Potency,SKOV3,"inconclusive: 0.143 µM [rising, partial curve]"
CC(C)Oc1ccc2c(=O)c(-c3ccccc3)coc2c1,Potency,C33A,"inconclusive: 22.4 µM [cytotoxic, single point] and inconclusive: 39.8 µM [cytotoxic, single point]"
same,Potency,CAOV3,"inconclusive: 7.94 µM [cytotoxic, partial curve] and active: 22.4 µM"
same,Potency,CASKI,"inconclusive: 25.1 µM [cytotoxic, single point] and inconclusive: 10 µM [cytotoxic, partial curve, poor fit]"
same,Potency,Es-2,"inconclusive: 39.8 µM [cytotoxic, single point] and active: 5.01 µM"
same,Potency,HeLa,"inconclusive: 15.8 µM [cytotoxic, partial curve, poor fit] and active: 28.2 µM"
same,Potency,Hek293T,"inconclusive: 28.2 µM [cytotoxic, single point] and inconclusive: 7.08 µM [cytotoxic, full curve, poor fit]"
same,Potency,JEG-3,"inconclusive: 31.6 µM [cytotoxic, single point] and inconclusive: 35.5 µM [cytotoxic, single point]"
same,Potency,OV90,"inconclusive: 25.1 µM [cytotoxic, partial curve, poor fit] and active: 22.4 µM"
same,Potency,PA-1,"inconclusive: 25.1 µM [cytotoxic, single point] and active: 20 µM"
same,Potency,SKOV3,"inconclusive: 25.1 µM [cytotoxic, single point] and inconclusive: 17.8 µM [cytotoxic, partial curve, poor fit]"
N#Cc1ccc(NC(=O)Nc2ccccc2Br)c2n[nH]nc12,Potency,UISO,inactive
CC(=O)c1ccc(OCC(=O)N2CCCCC2)cc1,Potency,UISO,inactive
same,Potency,CAOV3,inactive
C#CC(C)(CC)OC(=O)c1ccccc1C(=O)O (stereo not given),Potency,WaGa,inactive
CCCCCCCC/C=C/C(=O)O,Potency,MKL-2,inactive
same,Potency,WaGa,inactive
same,Potency,CAOV3,inactive
same,Potency,JEG-3,inactive
same,Potency,PA-1,inactive
same,Potency,SKOV3,inactive
O=C(Nc1ccc(F)c(C(F)(F)F)c1)Nc1nnc(-c2ccncc2)s1,Potency,WaGa,inactive
O=C(CCN1CCN(C(=O)OCc2cc(Cl)cc(Cl)c2)CC1)c1ccc2[nH]c(=O)oc2c1,Potency,UISO,inactive
CNC(=O)Oc1ccc2c(c1)[C@]1(C)CCN(C)[C@@H]1N2C,Potency,UISO,inactive
same,Potency,CAOV3,inactive
same,Potency,JEG-3,inactive
NS(=O)(=O)c1cc(C(=O)O)c(NCc2ccco2)cc1Cl,Potency,MKL-2,"inconclusive: 1.05 µM [inhibitor, full curve, poor fit]"
same,Potency,C33A,inactive
same,Potency,HeLa,inactive
O=C(O)c1c(O)c(-c2ccccc2)nc2ccccc12,Potency,MKL-2,inactive
same,Potency,OV90,inactive
same,Potency,SKOV3,inactive
NC(=O)Cc1cccc(C(=O)c2ccccc2)c1N,Potency,UISO,inactive
CCn1cc(C(=O)O)c(=O)c2cc(F)c(N3CCNC(C)C3)c(F)c21 (stereo not given),Potency,MKL-2,inactive
same,Potency,CAOV3,inactive
CCOC(=O)NNc1ccc(N(CC)CC(C)O)nn1 (stereo not given),Potency,MKL-2,"inconclusive: 13.3 µM [inhibitor, partial curve]"
same,Potency,PA-1,inactive
COc1ccnc(CS(=O)c2nc3ccc(OC(F)F)cc3[nH]2)c1OC (stereo not given),Potency,MKL-2,"inconclusive: 11.9 µM [inhibitor, partial curve] and inconclusive: 18.7 µM [inhibitor, partial curve]"
same,Potency,OV90,"inconclusive: 6.31 µM [cytotoxic, partial curve, poor fit]"
CC(C)C(=O)Oc1ccc(CO)cc1[C@H](CCN(C(C)C)C(C)C)c1ccccc1,Potency,C33A,"inconclusive: 31.6 µM [rising, single point]"
CCOC(=O)N1CCC(n2c(=O)[nH]c3cc(Cl)ccc32)CC1,Potency,UISO,"inconclusive: 15 µM [inhibitor, partial curve]"
same,Potency,WaGa,"inconclusive: 16.8 µM [inhibitor, single point]"
same,Potency,Hek293T,"inconclusive: 25.1 µM [cytotoxic, single point]"
same,Potency,JEG-3,"inconclusive: 28.2 µM [cytotoxic, partial curve, poor fit]"
same,Potency,OV90,"inconclusive: 39.8 µM [cytotoxic, single point]"
same,Potency,SKOV3,"inconclusive: 39.8 µM [cytotoxic, single point]"

# Source: PubChem BioAssay (NCATS)
